Results as given in patent US20180340025A1 (Novartis, published 2018).

T1: human LAG-3 expressed on cells (human, UniProt P18627 23-525)
T1 construct: whole, on cells; Treated as one protein; the host cell is named under assay; also called LAG-3-expressing CHO cells; LAG-3-transfected CHO cells
T1 sequence (looked up): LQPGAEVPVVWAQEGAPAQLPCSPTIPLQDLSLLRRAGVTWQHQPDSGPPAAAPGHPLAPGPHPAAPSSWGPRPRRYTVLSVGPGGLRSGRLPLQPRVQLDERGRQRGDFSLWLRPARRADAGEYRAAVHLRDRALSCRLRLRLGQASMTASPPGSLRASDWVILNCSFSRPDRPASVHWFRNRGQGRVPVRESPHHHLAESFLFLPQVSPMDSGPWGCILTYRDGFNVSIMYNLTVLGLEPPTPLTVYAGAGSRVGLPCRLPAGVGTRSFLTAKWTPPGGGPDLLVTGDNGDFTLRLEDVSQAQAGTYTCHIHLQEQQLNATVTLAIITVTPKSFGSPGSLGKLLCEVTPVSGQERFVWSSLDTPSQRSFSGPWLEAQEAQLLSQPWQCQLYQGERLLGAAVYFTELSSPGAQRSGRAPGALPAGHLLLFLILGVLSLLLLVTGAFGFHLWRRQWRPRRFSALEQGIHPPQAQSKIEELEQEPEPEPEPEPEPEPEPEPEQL


Columns and labels:
[1] = biological target: T1, human LAG-3 expressed on cells; test: rank of the clone among the humanized clones by the FACS binding data on LAG-3-expressing cells
[2] = biological target: T1, human LAG-3 expressed on cells; test: rank of the clone by the competition binding data (test mAb against FITC-labeled murine BAP050 on LAG-3-expressing CHO cells), curve position relative to the chimeric mAb in two experiments
Protocol: Incubations with the mAb mixtures having different concentration ratios of test mAb to labeled mAb was at 4° C. for 30 min. […] The experiment was performed twice.
Such a ranking system was used in FIG. 6.

| Ranking, Binding data [1] | Ranking, Compet. data [2] | Binder |
| --- | --- | --- |
| 1 | 2 | BAP050-hum01 (antibody, human IgG4 S228P, kappa, humanized IgG4(S228P)/kappa, transient CHO supernatant; also called humanized clone No. 01) heavy: EVQLVQSGAEVKKPGATVKISCKVSGFTLTNYGMNWVRQAPGQGLEWMGWINTDTGEPTYADDFKGRFVFSLDTSVSTAYLQICSLKAEDTAVYYCARNPPYYYGTNNAEAMDYWGQGTTVTVSSASTKGPSVFPLAPCSRSTSESTAALGCLVKDYFPEPVTVSWNSGALTSGVHTFPAVLQSSGLYSLSSVVTVPSSSLGTKTYTCNVDHKPSNTKVDKRV[omitted - human IgG4 Fc with S228P (EU numbers)] light: DIQMTQSPSSLSASVGDRVTITCSSSQDISNYLNWYQQKPGKAPKLLIYYTSTLHLGVPSRFSGSGSGTDFTFTISSLEAEDAATYYCQQYYNLPWTFGQGTKVEIKRTVAAPSVFIFPPSDEQLKSGTASVVCLLNNFYPREAKVQWKVDNALQSGNSQESVTEQDSKDSTYSLSSTLTLSKADYEKHKVYACEVTHQGLSSPVTKSFNRGEC |
| 8 | > 3 | BAP050-hum18 (antibody, human IgG4 S228P, kappa, humanized IgG4(S228P)/kappa, transient CHO supernatant) heavy: EVQLVQSGAEVKKPGATVKISCKVSGFTLTNYGMNWVRQAPGQGLEWMGWINTDTGEPTYADDFKGRFVFSLDTSVSTAYLQICSLKAEDTAVYYCARNPPYYYGTNNAEAMDYWGQGTTVTVSSASTKGPSVFPLAPCSRSTSESTAALGCLVKDYFPEPVTVSWNSGALTSGVHTFPAVLQSSGLYSLSSVVTVPSSSLGTKTYTCNVDHKPSNTKVDKRV[omitted - human IgG4 Fc with S228P (EU numbers)] light: AIQLTQSPSSLSASVGDRVTITCSSSQDISNYLNWYQQKPGQAPRLLIYYTSTLHLGVPSRFSGSGSGTDFTLTISSLQPEDFATYYCQQYYNLPWTFGQGTKVEIKRTVAAPSVFIFPPSDEQLKSGTASVVCLLNNFYPREAKVQWKVDNALQSGNSQESVTEQDSKDSTYSLSSTLTLSKADYEKHKVYACEVTHQGLSSPVTKSFNRGEC |
